Assay results as given in the supplement of paper PMC5919970.
Where a name gives a salt, the structure may show the parent alone. In all, about 2,000 compounds were measured (“fractional viability relative to vehicle”: median about 0.91, lowest 2% from about 0.045 on). The list shows a part of the results.

System: TYKNU
Assay: fractional viability relative to vehicle; TYKNU is a high-grade serous ovarian cancer line; higher = less growth inhibition
Conditions: 72 h
Procedure, shortened: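 Drug treatment lasted 72 h, with cells grown at 37 °C in 5% CO2 in RPMI 1640 supplemented with 10% FBS. Beforehand, TYKNU control cells or their lentiCRISPRv2 knockout derivatives had been seeded at 500 cells per well into drug-stamped 384-well plates carrying a ~2100-compound library at 2 or 10 μM, in duplicate. Viability came from Cell Titer Glo luminescence, with averaged duplicate treatment wells normalised to duplicate control wells in the same plate position.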

[1] = 2uM, genotype: DNM1L knockout (sgDNM1L #1)
[2] = 2uM, genotype: sgCTRLA1 (non-targeting control)
[3] = 10uM, genotype: DNM1L knockout (sgDNM1L #1)
[4] = 10uM, genotype: sgCTRLA1 (non-targeting control)

| SMILES | fractional viability [1] | fractional viability [2] | fractional viability [3] | fractional viability [4] |
| --- | --- | --- | --- | --- |
| COc1ccccc1OCC(O)CO (stereo not given) [Guaifenesin] | 1.01 | 0.999 | 0.867 | 0.99 |
| Nc1nc(CC(=O)Nc2ccc(CCNC[C@H](O)c3ccccc3)cc2)cs1 [Mirabegron] | 0.921 | 1.08 | 0.807 | 0.998 |
| CC[C@]1(O)C[C@H]2CN(CCc3c([nH]c4ccccc34)[C@@](C(=O)OC)(c3cc4c(cc3OC)N(C=O)[C@H]3[C@@](O)(C(=O)OC)[C@H](OC(C)=O)[C@]5(CC)C=CCN6CC[C@]43[C@@H]65)C2)C1 [Vincristine sulfate] | 0.17 | 0.134 | 0.172 | 0.13 |
| O=S(=O)(NCCSSCCNS(=O)(=O)c1cc(Cl)ccc1Cl)c1cc(Cl)ccc1Cl | 0.891 | 0.899 | 0.197 | 0.43 |
| CC(=O)[C@H]1CC[C@H]2[C@@H]3C=CC4=CC(=O)CC[C@@]4(C)[C@@H]3CC[C@]12C [Dydrogesterone] | 1.04 | 1.11 | 0.874 | 1.12 |
| Cc1cc(=O)[nH]c(=S)[nH]1 [Methylthiouracil] | 1.02 | 1.21 | 1.04 | 1.16 |
| CN1[C@@H]2CC[C@H]1C[C@@H](OC(=O)c1c[nH]c3ccccc13)C2 [Tropisetron] | 0.979 | 1.12 | 0.864 | 1.07 |
| Cc1cccc(C)c1OCC(C)N (stereo not given) [Mexiletine HCl] | 0.847 | 1.03 | 0.772 | 0.859 |
| CN1CCC[C@@H]1Cc1c[nH]c2ccc(CCS(=O)(=O)c3ccccc3)cc12 [Eletriptan HBr] | 0.991 | 1.01 | 0.788 | 1.02 |
| COc1ccccc1Oc1c(NS(=O)(=O)c2ccc(C(C)(C)C)cc2)nc(-c2ncccn2)nc1OCCO [Bosentan Hydrate] | 1.1 | 1.03 | 0.984 | 1.04 |
| COc1ccccc1Oc1c(NS(=O)(=O)c2ccc(C(C)(C)C)cc2)nc(-c2ncccn2)nc1OCCO [Bosentan] | 0.796 | 1.23 | 0.764 | 0.961 |
| C[S+]([O-])c1ccc(-c2nc(-c3ccc(F)cc3)c(-c3ccncc3)[nH]2)cc1 (stereo not given) | 1.03 | 1 | 1.03 | 0.943 |
| COc1cc2c(Oc3ccc(NC(=O)C4(C(=O)Nc5ccc(F)cc5)CC4)cc3F)ccnc2cc1OCCCN1CCOCC1 | 0.628 | 0.631 | 0.0524 | 0.0418 |
| CCOc1ccc2ccccc2c1C(=O)N[C@@H]1C(=O)N2[C@@H]1SC(C)(C)[C@@H]2C(=O)O [Nafcillin Sodium] | 1.07 | 1.07 | 0.876 | 1.01 |
| CCN(CC)CCNC(=O)c1cc(Cl)c(N)cc1OC [MetoclopraMide HCl] | 0.753 | 1.2 | 0.749 | 1.16 |
